Measurements published in paper PMC6451091.
The list shows a part of the results. For part of these data: At the low end of the ranking the order means little. For part of these data: The protein was read in a cell extract, so binding may be indirect.

Assays:
Conditions in all cases: 20 mM HEPES pH 7.9, 100 mM NaCl, 1 mM DTT, 0.2 mg/mL BSA, 0.02% Triton X-100, 2% milk, 0.4 mg/mL salmon testes DNA; 1 h; temperature not stated; high values mean tight binding; double strand, one strand shown; sequences stand for … in GCCTAGCAC…GTGCTAGGTCTTGATTCGCTTGACGCTGCTG
PU.1 (IVT) = PU.1 (IVT) (UniProt P17947); assay: protein-binding microarray (PBM)
[1] = target: T1, FLI1 (endogenous, THP-1 nuclear extract) (UniProt Q01543); assay: nuclear extract protein-binding microarray (nextPBM)
T1 sequence: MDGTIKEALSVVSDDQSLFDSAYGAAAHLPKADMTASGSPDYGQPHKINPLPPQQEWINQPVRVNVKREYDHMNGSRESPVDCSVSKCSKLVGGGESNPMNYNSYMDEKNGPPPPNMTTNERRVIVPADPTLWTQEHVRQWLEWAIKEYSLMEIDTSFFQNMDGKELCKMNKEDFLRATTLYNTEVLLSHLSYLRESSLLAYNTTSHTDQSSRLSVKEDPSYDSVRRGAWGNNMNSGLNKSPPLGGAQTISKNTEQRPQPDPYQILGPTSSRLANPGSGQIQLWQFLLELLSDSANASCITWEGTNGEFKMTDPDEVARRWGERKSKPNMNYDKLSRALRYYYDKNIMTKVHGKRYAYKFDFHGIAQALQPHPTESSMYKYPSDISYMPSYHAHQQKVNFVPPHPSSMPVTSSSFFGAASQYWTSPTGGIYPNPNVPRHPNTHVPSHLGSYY

[2] = tested on: PU.1 (endogenous, THP-1 nuclear extract) + IRF8 (endogenous, THP-1 nuclear extract); assay: as above

AAAAAAGGGAAATGAAAGTA
binding signal (PU.1 (IVT)): 4.95 z-score | binding signal [1]: 2.74 z-score | binding signal [2]: 26.9 z-score

GAAAAGAGGATGTGAAACTT
binding signal (PU.1 (IVT)): 3.95 z-score | binding signal [1]: 3.02 z-score | binding signal [2]: 48 z-score

ATGGCAGGGAACTGAAACTC
binding signal (PU.1 (IVT)): 0.668 z-score | binding signal [1]: 0.466 z-score | binding signal [2]: 10.6 z-score

CTGCCAGGGAAGTGAATGCA
binding signal (PU.1 (IVT)): 1.12 z-score | binding signal [1]: 0.523 z-score | binding signal [2]: 0.735 z-score

CTGGCAGGGAATTGAAACTC
binding signal (PU.1 (IVT)): 0.0605 z-score | binding signal [1]: -0.36 z-score | binding signal [2]: 7.66 z-score

TGGCAGAGGTAGTGAAACTA
binding signal (PU.1 (IVT)): 0.469 z-score | binding signal [1]: 0.362 z-score | binding signal [2]: 26.4 z-score

AAAAAAATGAAATGAAAGTA
binding signal (PU.1 (IVT)): 0.217 z-score | binding signal [1]: -0.0929 z-score | binding signal [2]: 7.64 z-score

TGGCAGGGGAAGTGAAACTA
binding signal (PU.1 (IVT)): 3.71 z-score | binding signal [1]: 3.38 z-score | binding signal [2]: 54.6 z-score

AAAAAAAGGGAATGAAAGTA
binding signal (PU.1 (IVT)): 1.7 z-score | binding signal [1]: -0.0634 z-score | binding signal [2]: 3.64 z-score

TGAGAGGAGAAGTGATACCT
binding signal (PU.1 (IVT)): 1.44 z-score | binding signal [1]: 0.376 z-score | binding signal [2]: 2.35 z-score

TGAAACAGGAAGTGACACCA
binding signal (PU.1 (IVT)): 6.93 z-score | binding signal [1]: 5.42 z-score | binding signal [2]: 1.5 z-score

AAAACAAGGAAATGAAAGTA
binding signal (PU.1 (IVT)): 2.07 z-score | binding signal [1]: 1.84 z-score | binding signal [2]: 12.7 z-score

AGAGAGAGGAAGTGAAAGTA
binding signal (PU.1 (IVT)): 4.81 z-score | binding signal [1]: 3.6 z-score | binding signal [2]: 37.1 z-score

AGAAAGAGGAACTGAAACTG
binding signal (PU.1 (IVT)): 6.71 z-score | binding signal [1]: 3.41 z-score | binding signal [2]: 63 z-score

AAATAAAGGAAATGAAAGTA
binding signal (PU.1 (IVT)): 1.79 z-score | binding signal [1]: 2.28 z-score | binding signal [2]: 14.1 z-score

CAGGGCAGGAAGTGAAACCC
binding signal (PU.1 (IVT)): 1.55 z-score | binding signal [1]: 4.33 z-score | binding signal [2]: 16.5 z-score

TAAAAGGAGAAGTGAAACTG
binding signal (PU.1 (IVT)): 5.07 z-score | binding signal [1]: 3.23 z-score | binding signal [2]: 64.5 z-score

GATAAGAGGAACTGAAAGCG
binding signal (PU.1 (IVT)): 4.2 z-score | binding signal [1]: 1.61 z-score | binding signal [2]: 6.98 z-score

GAAAAGGAGAACTGAAACTT
binding signal (PU.1 (IVT)): 3.59 z-score | binding signal [1]: 1.46 z-score | binding signal [2]: 32.7 z-score

CTGGCAGGGAACTGAAACCC
binding signal (PU.1 (IVT)): 0.713 z-score | binding signal [1]: 0.209 z-score | binding signal [2]: 4.26 z-score

TTTTTGAGGAACTGAAACTT
binding signal (PU.1 (IVT)): 4.94 z-score | binding signal [1]: 2.38 z-score | binding signal [2]: 44.4 z-score

TAAAGGAGGAACTGACACCA
binding signal (PU.1 (IVT)): 3.55 z-score | binding signal [1]: 1.2 z-score | binding signal [2]: 0.554 z-score

TAGATGAGGAAGTGAAACTC
binding signal (PU.1 (IVT)): 5.47 z-score | binding signal [1]: 4.06 z-score | binding signal [2]: 58.2 z-score

CCCAACAGGAAGTGAAACAG
binding signal (PU.1 (IVT)): 4.25 z-score | binding signal [1]: 4.98 z-score | binding signal [2]: 9.81 z-score

CTGGCAGGGAACTGCAACTC
binding signal (PU.1 (IVT)): 0.387 z-score | binding signal [1]: -0.465 z-score | binding signal [2]: 1.4 z-score

CTAAGAAGGAACTGAAACTT
binding signal (PU.1 (IVT)): 2.36 z-score | binding signal [1]: 0.911 z-score | binding signal [2]: 13.4 z-score

CTGCCAGGGAAGAGAAAGCA
binding signal (PU.1 (IVT)): -0.545 z-score | binding signal [1]: -0.122 z-score | binding signal [2]: 1.35 z-score

TAACGGAGGAACTGAAACCA
binding signal (PU.1 (IVT)): 0.988 z-score | binding signal [1]: 0.531 z-score | binding signal [2]: 16.1 z-score

GCTTTAGGGAAGTGAAACTG
binding signal (PU.1 (IVT)): 4.9 z-score | binding signal [1]: 2.81 z-score | binding signal [2]: 76 z-score

AAGGATGGGAAGTGAAAGTG
binding signal (PU.1 (IVT)): 2.72 z-score | binding signal [1]: 1.51 z-score | binding signal [2]: 16.5 z-score

TGAAACAGGAAGTGAAACGA
binding signal (PU.1 (IVT)): 6.59 z-score | binding signal [1]: 5.63 z-score | binding signal [2]: 17.4 z-score

TGAATCAGGAAGTGAAACCA
binding signal (PU.1 (IVT)): 4.41 z-score | binding signal [1]: 4.15 z-score | binding signal [2]: 65.4 z-score

AAAAAAAGGAAATGAACGTA
binding signal (PU.1 (IVT)): 3.24 z-score | binding signal [1]: 2.17 z-score | binding signal [2]: 0.329 z-score

GATAAGAGGAACTTAAAGCT
binding signal (PU.1 (IVT)): 5.22 z-score | binding signal [1]: 1.28 z-score | binding signal [2]: 0.0979 z-score

TTACTGAGGAACTGAAACTC
binding signal (PU.1 (IVT)): 1.82 z-score | binding signal [1]: 0.861 z-score | binding signal [2]: 18.8 z-score

TGGCAGCGGAAGTGAAACTA
binding signal (PU.1 (IVT)): 3.61 z-score | binding signal [1]: 5.01 z-score | binding signal [2]: 61.8 z-score

AAAAAAAGGAAATGAGAGTA
binding signal (PU.1 (IVT)): 2.8 z-score | binding signal [1]: 2.29 z-score | binding signal [2]: 0.748 z-score

TAAAGGAGGAACTGAGACCA
binding signal (PU.1 (IVT)): 3.13 z-score | binding signal [1]: 1.02 z-score | binding signal [2]: 0.698 z-score

CTGGCAGGGAACTGACACTC
binding signal (PU.1 (IVT)): -0.0602 z-score | binding signal [1]: -0.396 z-score | binding signal [2]: -0.0444 z-score

GCCGGGAGGAAGTGAAACTC
binding signal (PU.1 (IVT)): 3.13 z-score | binding signal [1]: 3.37 z-score | binding signal [2]: 42.7 z-score

CAAAGGAGGAACTGAAACCA
binding signal (PU.1 (IVT)): 3.2 z-score | binding signal [1]: 2.13 z-score | binding signal [2]: 43.9 z-score

GTTGTGAGGAAGTGAAAATA
binding signal (PU.1 (IVT)): 4.1 z-score | binding signal [1]: 2.06 z-score | binding signal [2]: 1.6 z-score

GAAAAAAGGAAATGAAAGTA
binding signal (PU.1 (IVT)): 3.16 z-score | binding signal [1]: 2.49 z-score | binding signal [2]: 16.1 z-score

AAAAAATGGAAATGAAAGTA
binding signal (PU.1 (IVT)): 1.03 z-score | binding signal [1]: 0.86 z-score | binding signal [2]: 9.33 z-score

ACATTTAGGAACTGAAAGCG
binding signal (PU.1 (IVT)): 1.22 z-score | binding signal [1]: 1.12 z-score | binding signal [2]: 2.96 z-score

GAAAAGAGGATGTGAAACTG
binding signal (PU.1 (IVT)): 3.5 z-score | binding signal [1]: 3.49 z-score | binding signal [2]: 52.2 z-score

ATTTTGCAGAACTGAAACTC
binding signal (PU.1 (IVT)): 1.75 z-score | binding signal [1]: 0.618 z-score | binding signal [2]: 20 z-score

TGGCCGAGGAAGTGAAACTA
binding signal (PU.1 (IVT)): 1.3 z-score | binding signal [1]: 1.66 z-score | binding signal [2]: 52.1 z-score

AAAAAAAGGAAATGAAAGTA
binding signal (PU.1 (IVT)): 3.32 z-score | binding signal [1]: 2.46 z-score | binding signal [2]: 15.2 z-score

CTGCCAGGGAGGTGAAAGCA
binding signal (PU.1 (IVT)): -0.159 z-score | binding signal [1]: -0.0494 z-score | binding signal [2]: 1.21 z-score

AAAAAAAGGAAATGCAAGTA
binding signal (PU.1 (IVT)): 2.88 z-score | binding signal [1]: 2.08 z-score | binding signal [2]: -0.516 z-score

TCATTAGGGAAGTGAAAGTA
binding signal (PU.1 (IVT)): 3.86 z-score | binding signal [1]: 2.24 z-score | binding signal [2]: 42.6 z-score

TGAGAGGAGAAGTGAAACCA
binding signal (PU.1 (IVT)): 1.19 z-score | binding signal [1]: 0.47 z-score | binding signal [2]: 39.5 z-score

AACAAAAGGAAATGAAAGTA
binding signal (PU.1 (IVT)): 0.996 z-score | binding signal [1]: 2.35 z-score | binding signal [2]: 9.42 z-score

CAGAAAAAGAAGTGAAACTA
binding signal (PU.1 (IVT)): 0.472 z-score | binding signal [1]: 0.143 z-score | binding signal [2]: 44 z-score

TGGCAGAGGAAGTGAAACAA
binding signal (PU.1 (IVT)): 2.98 z-score | binding signal [1]: 2.71 z-score | binding signal [2]: 9.6 z-score

CTGCCAGGGAAGTGAAAGCT
binding signal (PU.1 (IVT)): 0.857 z-score | binding signal [1]: 0.735 z-score | binding signal [2]: 3.36 z-score

TGAACCAGGAAGTGAAACCA
binding signal (PU.1 (IVT)): 3.67 z-score | binding signal [1]: 3.9 z-score | binding signal [2]: 59.7 z-score

CAGAAGGGGAAGCGAAACTG
binding signal (PU.1 (IVT)): 3.03 z-score | binding signal [1]: 2.54 z-score | binding signal [2]: 58.3 z-score

TGGCAGAGGAAGTGGAACTA
binding signal (PU.1 (IVT)): 3.96 z-score | binding signal [1]: 2.86 z-score | binding signal [2]: 1.48 z-score
